Data as given in the supplement of paper PMC3334620.
In all, about 33,000 sequences were measured (“E-score (-0.5 to 0.5)”: median about -0.011, highest 2% from about 0.28 on). Some of the results follow.

Target: T1, Gcr1 (UniProt P07261)
T1 sequence: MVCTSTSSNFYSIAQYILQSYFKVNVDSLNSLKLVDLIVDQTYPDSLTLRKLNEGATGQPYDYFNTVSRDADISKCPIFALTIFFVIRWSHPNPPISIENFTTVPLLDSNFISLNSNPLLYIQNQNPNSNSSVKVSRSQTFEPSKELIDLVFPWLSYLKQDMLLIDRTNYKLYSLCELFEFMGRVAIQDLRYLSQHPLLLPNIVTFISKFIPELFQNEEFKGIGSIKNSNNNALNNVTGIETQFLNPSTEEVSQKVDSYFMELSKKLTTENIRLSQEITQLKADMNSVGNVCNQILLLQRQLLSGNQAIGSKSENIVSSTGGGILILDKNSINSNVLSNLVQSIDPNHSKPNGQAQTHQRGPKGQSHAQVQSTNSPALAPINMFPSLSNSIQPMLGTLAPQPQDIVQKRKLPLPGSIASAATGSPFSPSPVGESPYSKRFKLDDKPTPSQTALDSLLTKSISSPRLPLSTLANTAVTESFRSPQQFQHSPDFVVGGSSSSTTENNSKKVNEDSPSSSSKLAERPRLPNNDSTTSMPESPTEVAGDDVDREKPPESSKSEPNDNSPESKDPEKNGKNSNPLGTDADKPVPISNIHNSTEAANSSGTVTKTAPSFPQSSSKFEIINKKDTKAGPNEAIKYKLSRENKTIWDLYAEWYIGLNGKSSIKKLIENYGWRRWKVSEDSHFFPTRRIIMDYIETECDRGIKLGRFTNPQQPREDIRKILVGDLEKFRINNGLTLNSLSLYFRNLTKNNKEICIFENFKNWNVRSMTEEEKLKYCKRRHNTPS
Assay: PBM E-score (8-mer binding enrichment) (E-score (-0.5 to 0.5)); higher = stronger / more preferred TF binding; most listed sequences are background and not binding sites
Conditions: protein concentration: 100 nM; construct: GST-full length
Method in brief: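 E-scores (a modified Wilcoxon-Mann-Whitney statistic) were assigned by the Universal PBM Analysis Suite to every ungapped eight-base word pooled with its reverse complement. The input came from universal all-10-mer Agilent arrays made double-stranded by primer extension and probed with GST-tagged yeast transcription factors at about 100-200 nM. Fluorescent anti-GST detected bound protein, and masliner normalised the scans.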

Row | Sequence | PBM E-score
1 | CAGAGCAG | -0.0062
2 | ACAAGAAT | 0.252
3 | CTTAAGCC | -0.206
4 | ACTTCACA | -0.145
5 | CCCAACGC | 0.0251
6 | CAACATAC | -0.0428
7 | GAGTGCGA | -0.0623
8 | GCATCCAC | 0.452
9 | GGTTTAAC | -0.0625
10 | ACTTTGGA | 0.208
11 | CTGGGAAC | 0.146
12 | ACTGTTTG | -0.053
13 | AGTATACA | -0.0609
14 | GACTTAAA | -0.103
15 | ACTCTCTC | -0.288
16 | ATGCGTTG | 0.0138
17 | CTATGAAA | 0.0846
18 | ATATAACA | -0.00593
19 | CCATATAC | 0.0567
20 | CAGCAGTC | -0.0813
21 | AGGGCGGC | 0.0238
22 | ACACTTCT | -0.161
23 | ATTGATAG | -0.156

Row | Sequence | PBM E-score
24 | AACCTTAC | -0.00831
25 | CTGTGGTA | -0.00229
26 | GCCAGAAA | 0.236
27 | ACTGTCCG | -0.14
28 | TACAACAA | -0.00277
29 | TGCGTACA | -0.0703
30 | CGCTGAGA | 0.0709
31 | AATCTACC | 0.0103
32 | GTCTGTTA | -0.183
33 | GTTCATAA | 0.0771
34 | GACACCTA | 0.0961
35 | CGTGTGAA | -0.0605
36 | GCGATCTA | -0.061
37 | CCAAGGAG | 0.0296
38 | CAGGTTCA | -0.346
39 | CTGGACTA | -0.0579
40 | AGCCATAT | -0.113
41 | ATCGTGCA | -0.138
42 | ATCGAGAC | -0.108
43 | AATGGTTA | -0.0784
44 | CCACGCCG | -0.106
45 | AGATAATC | -0.0235
46 | GATCCAGA | 0.173

Row | Sequence | PBM E-score
47 | CAGCGATA | 0.222
48 | AAGGCAGA | -0.162
49 | CTCTGGTC | -0.121
50 | GTCTCCAC | 0.08
51 | ACGTACTC | -0.0721
52 | CCCTATAA | 0.141
53 | CGATCCTC | -0.0506
54 | TCCATAAA | 0.251
55 | CAGCCTAA | 0.193
56 | AAGGGACT | -0.202
57 | GACACAGA | -0.154
58 | AAGATTCA | -0.0204
59 | AAGACTAT | -0.146
60 | TATTAATA | 0.277
61 | CCATCGAG | -0.198
62 | CCGCTCAG | 0.0454
63 | CCAACTAC | 0.14
64 | CTTCGCGC | 0.0687
65 | CAACACGG | 0.0698
66 | ACGGACAC | 0.0529
67 | CTCCTCGA | -0.185
